Experimental data taken from the supplement of paper PMC8728848.
Some of the results follow.

How the values were obtained:
Assay in all cases: glycan array binding signal (z-score within array); higher = stronger binding
Conditions in all cases: glycan notation: IUPAC condensed, linker removed
[1] = target: GlcNAc(b1-2)Man(a1-3)[GlcNAc(b1-2)Man(a1-6)]Man(b1-4)GlcNAc(b1-4)GlcNAc
Summary of the method: (§1)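 Negative Z-scores can be read as non-binding. The Z-score is calculated within each array and then averaged across arrays of one protein sequence at different concentrations or buffers and across linkers. Arrays, 3228 in all, were curated from the Consortium for Functional Glycomics database and kept only where the protein sequence was available.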

[2] = target: GlcNAc(b1-3)Gal
Summary of the method: as §1

[3] = target: GlcNAc(b1-3)Gal(b1-3)GalNAc
Summary of the method: as §1

[4] = target: GlcNAc(b1-3)Gal(b1-4)Glc
Summary of the method: as §1

[5] = target: GlcNAc(b1-3)Gal(b1-4)GlcNAc
Summary of the method: as §1

[6] = target: GlcNAc(b1-3)Gal(b1-4)GlcNAc(b1-3)Gal(b1-4)GlcNAc
Summary of the method: as §1

[7] = target: GlcNAc(b1-3)GalNAc
Summary of the method: as §1

[8] = target: GlcNAc(b1-3)[GlcNAc(b1-4)][GlcNAc(b1-6)]GlcNAc
Summary of the method: as §1

[9] = target: GlcNAc(b1-3)[GlcNAc(b1-6)]Gal(b1-4)GlcNAc
Summary of the method: as §1

[10] = target: GlcNAc(b1-3)[GlcNAc(b1-6)]GlcNAc
Summary of the method: as §1

[11] = target: GlcNAc(b1-4)Gal(b1-4)GlcNAc
Summary of the method: as §1

[12] = target: GlcNAc(b1-4)GlcNAc(b1-4)GlcNAc
Summary of the method: as §1

[13] = target: GlcNAc(b1-4)GlcNAc(b1-4)GlcNAc(b1-4)GlcNAc(b1-4)GlcNAc
Summary of the method: as §1

[14] = target: GlcNAc(b1-4)GlcNAc(b1-4)GlcNAc(b1-4)GlcNAc(b1-4)GlcNAc(b1-4)GlcNAc
Summary of the method: as §1

[15] = target: GlcNAc(b1-4)[GlcNAc(b1-6)]GalNAc
Summary of the method: as §1

[16] = target: GlcNAc(b1-6)Gal(b1-4)GlcNAc
Summary of the method: as §1

[17] = target: GlcNAc(b1-6)GalNAc
Summary of the method: as §1

[18] = target: Kdn(a2-3)Gal(b1-3)GlcNAc
Summary of the method: as §1

[19] = target: Kdn(a2-3)Gal(b1-4)GlcNAc
Summary of the method: as §1

[20] = target: Man(a1-2)Man(a1-2)Man(a1-3)Man
Summary of the method: as §1

[21] = target: Man(a1-2)Man(a1-2)Man(a1-3)[Man(a1-2)Man(a1-3)[Man(a1-2)Man(a1-6)]Man(a1-6)]Man(b1-4)GlcNAc(b1-4)GlcNAc
Summary of the method: as §1

[22] = target: Man(a1-2)Man(a1-2)Man(a1-3)[Man(a1-2)Man(a1-6)[Man(a1-3)]Man(a1-6)]Man(b1-4)GlcNAc(b1-4)GlcNAc
Summary of the method: as §1

[23] = target: Man(a1-2)Man(a1-2)Man(a1-6)[Man(a1-3)]Man
Summary of the method: as §1

[24] = target: Man(a1-2)Man(a1-3)Man
Summary of the method: as §1

[25] = target: Man(a1-2)Man(a1-3)[Man(a1-2)Man(a1-6)]Man
Summary of the method: as §1

[26] = target: Man(a1-2)Man(a1-3)[Man(a1-3)[Man(a1-6)]Man(a1-6)]Man(b1-4)GlcNAc(b1-4)GlcNAc
Summary of the method: as §1

[27] = target: Man(a1-2)Man(a1-3)[Man(a1-6)]Man(a1-6)[Man(a1-2)Man(a1-3)]Man(b1-4)GlcNAc(b1-4)GlcNAc
Summary of the method: as §1

[28] = target: Man(a1-3)[Man(a1-6)]Man
Summary of the method: as §1

[29] = target: Man(a1-3)[Man(a1-6)]Man(a1-6)[Man(a1-3)]Man(b1-4)GlcNAc(b1-4)GlcNAc
Summary of the method: as §1

[30] = target: Man(a1-3)[Man(a1-6)]Man(b1-4)GlcNAc(b1-4)GlcNAc
Summary of the method: as §1

[31] = target: Man(b1-4)GlcNAc
Summary of the method: as §1

[32] = target: Neu5Ac(a2-3)Gal
Summary of the method: as §1

[33] = target: Neu5Ac(a2-3)Gal(b1-3)GalNAc
Summary of the method: as §1

[34] = target: Neu5Ac(a2-3)Gal(b1-3)GalNAc(b1-3)Gal(a1-4)Gal(b1-4)Glc
Summary of the method: as §1

[35] = target: Neu5Ac(a2-3)Gal(b1-3)GalNAc(b1-4)[Neu5Ac(a2-3)]Gal(b1-4)Glc
Summary of the method: as §1

[36] = target: Neu5Ac(a2-3)Gal(b1-3)GalNAc6S
Summary of the method: as §1

[37] = target: Neu5Ac(a2-3)Gal(b1-3)GlcNAc
Summary of the method: as §1

[38] = target: Neu5Ac(a2-3)Gal(b1-3)GlcNAc(b1-3)Gal(b1-3)GlcNAc
Summary of the method: as §1

[39] = target: Neu5Ac(a2-3)Gal(b1-3)GlcNAc(b1-3)Gal(b1-4)GlcNAc
Summary of the method: as §1

[40] = target: Neu5Ac(a2-3)Gal(b1-3)GlcNAc6S
Summary of the method: as §1

[41] = target: Neu5Ac(a2-3)Gal(b1-3)[Fuc(a1-4)]GlcNAc
Summary of the method: as §1

[42] = target: Neu5Ac(a2-3)Gal(b1-3)[Fuc(a1-4)]GlcNAc(b1-3)Gal(b1-4)[Fuc(a1-3)]GlcNAc
Summary of the method: as §1

[43] = target: Neu5Ac(a2-3)Gal(b1-3)[Neu5Ac(a2-3)Gal(b1-4)]GlcNAc
Summary of the method: as §1

B1: DC SIGN CRD (Homo sapiens), Q9NNX6 (protein)
chain: QPCPWEWTFFQGNCYFMSNSQRNWHDSITACKEVGAQLVVIKSAEEQNFLQLQSSRSNRFTWMGLSDLNQEGTWQWVDGSPLLPSFKQYWNRGEPNNVGEEDCAEFSGNGWNDDKCNLAKFWICKKSAWSHPQFEK
[1]
  glycan array binding signal (z-score): 0.259
[2]
  glycan array binding signal (z-score): -0.36
[3]
  glycan array binding signal (z-score): -0.378
[4]
  glycan array binding signal (z-score): -0.393
[5]
  glycan array binding signal (z-score): -0.092
[6]
  glycan array binding signal (z-score): 0.681
[7]
  glycan array binding signal (z-score): -0.366
[8]
  glycan array binding signal (z-score): -0.396
[9]
  glycan array binding signal (z-score): -0.403
[10]
  glycan array binding signal (z-score): -0.382
[11]
  glycan array binding signal (z-score): -0.286
[12]
  glycan array binding signal (z-score): -0.397
[13]
  glycan array binding signal (z-score): -0.36
[14]
  glycan array binding signal (z-score): -0.409
[15]
  glycan array binding signal (z-score): -0.371
[16]
  glycan array binding signal (z-score): -0.365
[17]
  glycan array binding signal (z-score): -0.401
[18]
  glycan array binding signal (z-score): -0.396
[19]
  glycan array binding signal (z-score): -0.211
[20]
  glycan array binding signal (z-score): 1.54
[21]
  glycan array binding signal (z-score): 2.1
[22]
  glycan array binding signal (z-score): 2.91
[23]
  glycan array binding signal (z-score): 1.79
[24]
  glycan array binding signal (z-score): 0.754
[25]
  glycan array binding signal (z-score): 2.22
[26]
  glycan array binding signal (z-score): 2.6
[27]
  glycan array binding signal (z-score): 1.74
[28]
  glycan array binding signal (z-score): 0.693
[29]
  glycan array binding signal (z-score): 0.332
[30]
  glycan array binding signal (z-score): -0.336
[31]
  glycan array binding signal (z-score): -0.275
[32]
  glycan array binding signal (z-score): -0.339
[33]
  glycan array binding signal (z-score): -0.376
[34]
  glycan array binding signal (z-score): -0.359
[35]
  glycan array binding signal (z-score): -0.384
[36]
  glycan array binding signal (z-score): -0.379
[37]
  glycan array binding signal (z-score): -0.334
[38]
  glycan array binding signal (z-score): -0.28
[39]
  glycan array binding signal (z-score): -0.302
[40]
  glycan array binding signal (z-score): -0.406
[41]
  glycan array binding signal (z-score): -0.076
[42]
  glycan array binding signal (z-score): 0.181
[43]
  glycan array binding signal (z-score): -0.384
